# Results: the supplement of paper PMC10037445
# ± gives the standard deviation of the averaged measurements. Whole data set: some 2,900 compounds, median “IRF Lucia reporter activity, fold change vs agonist alone” near 0.9, cut for the highest 2% near 2.8. The list shows a part of the results.
# Tests used:
# RAW-Dual [1] = assay: IRF Lucia reporter activity, fold change vs agonist alone; cytotoxicity flag (confluency mask): not cytotoxic; higher = enhanced IRF activity
# How it was run: (§1)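 Reporter activity is given as fold change relative to agonist-alone wells. To measure it, 50 nL of library stock was pin-tooled onto RAW-Dual macrophages (50,000 cells/well, DMEM, 384-well plates), a PRR agonist followed 1 h later, and cells stayed at 37 °C, 5% CO2. Twenty hours on, supernatant was assayed for IRF (QuantiLuc luminescence) and NF-κB (QuantiBlue, 620 nm absorbance), and wells under 70% of agonist-control IncuCyte confluency in both mask sets were marked cytotoxic.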
# RAW-Dual [2] = assay: IRF Lucia reporter activity, fold change vs agonist alone; higher = enhanced IRF activity; details: cytotoxicity flag (confluency mask): not cytotoxic, agonist: MPLA (TLR4) […]
# How it was run: as §1
# RAW-Dual [3] = assay: IRF Lucia reporter activity, fold change vs agonist alone; cytotoxicity flag (confluency mask): cytotoxic (confluency <70% of control); higher = enhanced IRF activity
# How it was run: as §1
# [4] = agonist: 3'3'-cGAMP (STING) 10 ug/mL
# [5] = library stock concentration (final ~1000-fold dilution): 10 mM
compound,measurement,setting,value
COc1cc2ncnc(Oc3cccc(NC(=O)Nc4cc(C(C)(C)C(F)(F)F)on4)c3)c2cc1OC (library stock concentration (final ~1000-fold dilution): 10 mM),IRF Lucia reporter activity,RAW-Dual [1]; [4],0.728
same,IRF Lucia reporter activity,RAW-Dual [1]; agonist: LPS (TLR4) 0.1 ug/mL,0.555
NCC(=O)Nc1ccc(-n2nc(C(F)(F)F)cc2-c2ccc3c(ccc4ccccc43)c2)cc1,IRF Lucia reporter activity,RAW-Dual [2]; [5],0.122
NCC(=O)Nc1ccc(-n2nc(C(F)(F)F)cc2-c2ccc3c(ccc4ccccc43)c2)cc1 (library stock concentration (final ~1000-fold dilution): 10 mM),IRF Lucia reporter activity,RAW-Dual [1]; [4],0.0488
same,IRF Lucia reporter activity,RAW-Dual [1]; agonist: LPS (TLR4) 0.1 ug/mL,0.105
COc1ccc(-c2nc3cc(C4=NNC(=O)CC4C)ccc3[nH]2)cc1 (stereo unspecified),IRF Lucia reporter activity,RAW-Dual [2]; [5],1.24
COc1ccc(-c2nc3cc(C4=NNC(=O)CC4C)ccc3[nH]2)cc1 (stereo unspecified) (library stock concentration (final ~1000-fold dilution): 10 mM),IRF Lucia reporter activity,RAW-Dual [1]; [4],0.294
same,IRF Lucia reporter activity,RAW-Dual [1]; agonist: LPS (TLR4) 0.1 ug/mL,0.934
Cc1ccc(S(=O)(=O)n2c(N)nc3ccccc32)cc1 (library stock concentration (final ~1000-fold dilution): 10 mM),IRF Lucia reporter activity,RAW-Dual [1]; [4],1.17 ± 0.022
same,IRF Lucia reporter activity,RAW-Dual [1]; agonist: LPS (TLR4) 0.1 ug/mL,0.927 ± 0.074
Cc1ccc(S(=O)(=O)n2c(N)nc3ccccc32)cc1,IRF Lucia reporter activity,RAW-Dual [2]; [5],1.12 ± 0.18
Br.Cc1ccc(Sc2ccccc2N2CCNCC2)c(C)c1 (library stock concentration (final ~1000-fold dilution): 10 mM),IRF Lucia reporter activity,RAW-Dual [3]; [4],0.325
same,IRF Lucia reporter activity,RAW-Dual [3]; agonist: LPS (TLR4) 0.1 ug/mL,0.0699
CNC(=O)c1ccc(-c2cnc3ncc(Cc4ccc5ncccc5c4)n3n2)cc1F (library stock concentration (final ~1000-fold dilution): 2 mM),IRF Lucia reporter activity,RAW-Dual [1]; [4],0.848
same,IRF Lucia reporter activity,RAW-Dual [1]; agonist: LPS (TLR4) 0.1 ug/mL,1
CNC(=O)c1ccc(-c2cnc3ncc(Cc4ccc5ncccc5c4)n3n2)cc1F,IRF Lucia reporter activity,RAW-Dual [2]; library stock concentration (final ~1000-fold dilution): 2 mM,1.16
CC/C(C)=C/CC[C@](C)(O)C1CC[C@]2(C)C3C[C@@H](O[C@@H]4O[C@H](CO)[C@@H](O)[C@H](O)[C@H]4O[C@@H]4O[C@@H](C)[C@H](O)[C@@H](O)[C@H]4O)C4C(C)(C)C(O)CC[C@]4(C)C3C[C@H](O)C12 (stereo partly specified) (library stock concentration (final ~1000-fold dilution): 10 mM),IRF Lucia reporter activity,RAW-Dual [1]; [4],0.856
same,IRF Lucia reporter activity,RAW-Dual [1]; agonist: LPS (TLR4) 0.1 ug/mL,0.999
Cc1c(CN2CCN(C(=O)C(C)O)CC2)sc2c(N3CCOCC3)nc(-c3cnc(N)nc3)nc12 (stereo unspecified) (library stock concentration (final ~1000-fold dilution): 10 mM),IRF Lucia reporter activity,RAW-Dual [1]; [4],0.373
same,IRF Lucia reporter activity,RAW-Dual [1]; agonist: LPS (TLR4) 0.1 ug/mL,0.997
Cc1c(CN2CCN(C(=O)C(C)O)CC2)sc2c(N3CCOCC3)nc(-c3cnc(N)nc3)nc12 (stereo unspecified),IRF Lucia reporter activity,RAW-Dual [2]; [5],0.891
O=C(NCc1ccncc1)C12CC3CC(C1)CC(c1ccc(Cl)cc1)(C3)C2 (library stock concentration (final ~1000-fold dilution): 10 mM),IRF Lucia reporter activity,RAW-Dual [1]; [4],0.409
same,IRF Lucia reporter activity,RAW-Dual [1]; agonist: LPS (TLR4) 0.1 ug/mL,0.998
O=C(NCc1ccncc1)C12CC3CC(C1)CC(c1ccc(Cl)cc1)(C3)C2,IRF Lucia reporter activity,RAW-Dual [2]; [5],1.29
CCOc1ccc2c(c1)C(C)=CC(C)(C)N2 (library stock concentration (final ~1000-fold dilution): 10 mM),IRF Lucia reporter activity,RAW-Dual [1]; [4],0.888
same,IRF Lucia reporter activity,RAW-Dual [1]; agonist: LPS (TLR4) 0.1 ug/mL,1.38
COc1cc2c(c(O)c1OC)-c1c(cc(OC)c(OC)c1OC)CC(C)C(C)C2 (stereo unspecified) (library stock concentration (final ~1000-fold dilution): 10 mM),IRF Lucia reporter activity,RAW-Dual [1]; [4],1.48
same,IRF Lucia reporter activity,RAW-Dual [1]; agonist: LPS (TLR4) 0.1 ug/mL,0.929
CCC(=O)N1CCC(Nc2ncnc3c2CN(c2cnc(OC)c(C(F)(F)F)c2)CC3)C1 (stereo unspecified) (library stock concentration (final ~1000-fold dilution): 10 mM),IRF Lucia reporter activity,RAW-Dual [1]; [4],0.908
same,IRF Lucia reporter activity,RAW-Dual [1]; agonist: LPS (TLR4) 0.1 ug/mL,0.847
NC(=O)Cc1cccc(C(=O)c2ccccc2)c1N,IRF Lucia reporter activity,RAW-Dual [2]; [5],1.07
NC(=O)Cc1cccc(C(=O)c2ccccc2)c1N (library stock concentration (final ~1000-fold dilution): 10 mM),IRF Lucia reporter activity,RAW-Dual [1]; [4],0.95
same,IRF Lucia reporter activity,RAW-Dual [1]; agonist: LPS (TLR4) 0.1 ug/mL,1.18
CN(c1ncccc1CNc1nc(Nc2ccc3c(c2)CC(=O)N3)ncc1C(F)(F)F)S(C)(=O)=O.O=S(=O)(O)c1ccccc1 (library stock concentration (final ~1000-fold dilution): 10 mM),IRF Lucia reporter activity,RAW-Dual [1]; [4],1.01
same,IRF Lucia reporter activity,RAW-Dual [1]; agonist: LPS (TLR4) 0.1 ug/mL,0.0165
CN(c1ncccc1CNc1nc(Nc2ccc3c(c2)CC(=O)N3)ncc1C(F)(F)F)S(C)(=O)=O.O=S(=O)(O)c1ccccc1,IRF Lucia reporter activity,RAW-Dual [2]; [5],1.1
CC(C)NCC(O)c1ccc(NS(C)(=O)=O)cc1.Cl (stereo unspecified) (library stock concentration (final ~1000-fold dilution): 10 mM),IRF Lucia reporter activity,RAW-Dual [1]; [4],1.02
same,IRF Lucia reporter activity,RAW-Dual [1]; agonist: LPS (TLR4) 0.1 ug/mL,1.06
CC(C)NCC(O)c1ccc(NS(C)(=O)=O)cc1.Cl (stereo unspecified),IRF Lucia reporter activity,RAW-Dual [2]; [5],1.04
O=[N+]([O-])c1ccc2c(c1)S(=O)(=O)C=C2 (library stock concentration (final ~1000-fold dilution): 10 mM),IRF Lucia reporter activity,RAW-Dual [1]; [4],0.0121
same,IRF Lucia reporter activity,RAW-Dual [1]; agonist: LPS (TLR4) 0.1 ug/mL,0.0195
O=[N+]([O-])c1ccc2c(c1)S(=O)(=O)C=C2,IRF Lucia reporter activity,RAW-Dual [2]; [5],0.0226
CCCCCCCCC/C(=C\C1=C(C)C(=O)C(OC)=C(OC)C1=O)C(=O)O,IRF Lucia reporter activity,RAW-Dual [2]; [5],1.01
CCCCCCCCC/C(=C\C1=C(C)C(=O)C(OC)=C(OC)C1=O)C(=O)O (library stock concentration (final ~1000-fold dilution): 10 mM),IRF Lucia reporter activity,RAW-Dual [1]; [4],0.636
same,IRF Lucia reporter activity,RAW-Dual [1]; agonist: LPS (TLR4) 0.1 ug/mL,1.06
CC(=O)NC(CS)C(=O)O (stereo unspecified) (library stock concentration (final ~1000-fold dilution): 10 mM),IRF Lucia reporter activity,RAW-Dual [1]; [4],0.952
same,IRF Lucia reporter activity,RAW-Dual [1]; agonist: LPS (TLR4) 0.1 ug/mL,0.675
CC(=O)NC(CS)C(=O)O (stereo unspecified),IRF Lucia reporter activity,RAW-Dual [2]; [5],0.885
Nc1ccccc1NC(=O)c1ccc(CNC(=O)OCc2cccnc2)cc1 (library stock concentration (final ~1000-fold dilution): 10 mM),IRF Lucia reporter activity,RAW-Dual [1]; [4],0.969
same,IRF Lucia reporter activity,RAW-Dual [1]; agonist: LPS (TLR4) 0.1 ug/mL,1.08
Nc1ccccc1NC(=O)c1ccc(CNC(=O)OCc2cccnc2)cc1,IRF Lucia reporter activity,RAW-Dual [2]; [5],1.03
CC1(C)CC[C@]2(C(=O)O)[C@H](O)C[C@]3(C)C(=CC[C@@H]4[C@@]5(C)CC[C@H](O)C(C)(C)[C@@H]5CC[C@]43C)[C@@H]2C1 (library stock concentration (final ~1000-fold dilution): 10 mM),IRF Lucia reporter activity,RAW-Dual [3]; [4],0.751
same,IRF Lucia reporter activity,RAW-Dual [3]; agonist: LPS (TLR4) 0.1 ug/mL,1.39
Cl.O=C1Cc2cc(CCN3CCN(c4nsc5ccccc45)CC3)c(Cl)cc2N1,IRF Lucia reporter activity,RAW-Dual [2]; [5],0.607
Cl.O=C1Cc2cc(CCN3CCN(c4nsc5ccccc45)CC3)c(Cl)cc2N1 (library stock concentration (final ~1000-fold dilution): 10 mM),IRF Lucia reporter activity,RAW-Dual [1]; [4],0.802
same,IRF Lucia reporter activity,RAW-Dual [1]; agonist: LPS (TLR4) 0.1 ug/mL,0.764
